# This is one part of the list. At the low end of the ranking the order means little. The protein was read in a cell extract, so binding may be indirect.
# Molecular target: T1, HNF4alpha2 (COS-7 nuclear extract) (UniProt P41235)
# T1 sequence: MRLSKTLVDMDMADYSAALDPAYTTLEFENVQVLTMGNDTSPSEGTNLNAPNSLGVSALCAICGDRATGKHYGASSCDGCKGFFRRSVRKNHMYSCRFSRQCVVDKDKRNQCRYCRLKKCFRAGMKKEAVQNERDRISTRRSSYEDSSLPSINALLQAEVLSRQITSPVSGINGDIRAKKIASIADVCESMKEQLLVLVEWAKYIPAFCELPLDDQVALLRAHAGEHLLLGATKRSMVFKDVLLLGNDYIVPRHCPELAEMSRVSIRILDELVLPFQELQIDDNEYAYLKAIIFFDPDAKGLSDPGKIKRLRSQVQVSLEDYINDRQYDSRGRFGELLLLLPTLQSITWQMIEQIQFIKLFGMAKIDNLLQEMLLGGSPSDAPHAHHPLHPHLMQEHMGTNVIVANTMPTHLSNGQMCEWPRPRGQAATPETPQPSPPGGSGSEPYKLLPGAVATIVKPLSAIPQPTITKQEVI
# Assay: protein-binding microarray
# Conditions: COS-7 nuclear extract on double-stranded Agilent 4x180k PBM; binding buffer, salt, pH and temperature not given; high values mean tight binding; double strand, one strand shown; sequences stand for … in …GCCTAGGGAGATTAGAGTATCGGTCGA
row,Sequence,binding signal (log2 normalized intensity)
1,GCAGGCTTAGCTGGGCTAGCACCTGTGGAT,-1.19
2,TACTTTGCTCTCAGCACACTCTGGTACCAT,-0.832
3,ACAGAAGGCAGAGATTTGAGTCAACCCAAC,-1.04
4,TCTCACATCTGATAGCTAAACCAGATACGT,-1.11
5,CAGCGACTGAGCTGAGGTTAGAATCCTTAT,-1.12
6,GGTGGTGACAAAGACAGATTAGATCTGCGT,-1.08
7,CTTGGAGGCGGCGGCTCCGGGAGCTGGCGG,-1.11
8,CCAGGTCGGGCCGGAGAGGCTTATTCCGTA,-1.2
9,TTGATGGTTAAAGTCCAATCTTCTGGCCCC,4.27
10,TATGGACCTTGTCCCTGGATTGTGTTGCAC,2.64
11,GGAGGACTTTGGAATGGCAGTGCTTGTCCA,1.83
12,TCTGGTGCCAAGGAGCCTCTGCAACCTTTG,2.46
13,GTCAAAAATTTGTGTGTAACATTTGACTTC,1.32
14,GCGGCTGCAAATTCTGCATTTTTCTTTCCT,-0.928
15,TGGGCCCCACAGTGCATCTGATAAGGTTGT,0.921
16,GACAAAGGTCATTCATGTGCAGGTTGGAAT,2.77
17,CCCCTTGGCTACATGTTTGTCTTTCAAACA,1.05
18,TGTGAATGAAAGAGACTAGTATGTAAATAA,0.38
19,CCCCACCCCCACTGCCTGACCCCAAGTAAT,6.98
20,TGCTTCAGCAAAACCAGTTTGTCTGATCTT,-0.657
21,CAAGGTCCCATGGCTAATCTGTGACTGAGC,-1.2
22,AAGGGGAAATATGTAGGTTTGGGGAACTTT,0.936
23,GTGATCAGAGATCTAGGTGAGGGATGAGGA,-1.09
24,CAAAGGACAATAATGAATAAGCACGTTAGA,-1.16
25,AGCAGAAAATCCAGGTGCAGTGTGAGAGGA,-0.963

row,Sequence,binding signal (log2 normalized intensity)
1,TGATTGCTGTCTACTCTGGGGGTCAGCAAT,2.31
2,TCTCTCTTAAGAACGCTTGTGATTACACTG,-0.764
3,GTGACTCACCTTTGCTCTGATCTTTGACTT,3.3
4,AACCTGTTCCAAAGTCCACCGTGGTGTAGA,4.32
5,CAATCCAGAAGGCGCTGAACTTTGCCTTGT,4.39
6,CCCCACCCCACCCCACTCCACCTACGCTAC,5.39
7,CATCCCCTAAAACATCAAATACCTCCAAGA,0.294
8,TGCCATGATAAGCAGTGTGGACTTTTTCCT,2.84
9,ACTGCATGATAGGCCCATCTTCTTATCTGA,-1.05
10,GGAAAACCCGGCGCGGACATAAAATTAAAG,-1.18
11,CAAAATCAATAAATCACACGAAACAAGTAG,-1.2
12,CCATGTGCTATTCTGTCTCCTGGAAAGGTT,2.07
13,GGTCAAGTTCAGATCCTGGCCATGCCCCAG,-0.0766
14,CCCTCAGAGCTCAGATGAACTTTGCCTTAG,5.39
15,GAAGACAAGACAAGGAAGTTAAGAGTTCGA,-0.867
16,TTGCCATTTACATCAAACACTCACTGGGAG,-0.349
17,AGGCCCTGCATTAAACAAGAGAGAGTCCAC,1.81
18,GGCCATTTGGTCTGTAGTGTTGCTCAAGTC,1.54
19,ACTTTCAGAGTAACCATGGGGGCTCAGGGC,-1.02
20,AGAGATCATGGCCGATCGACTAGCGAGGCG,-1.16
21,TCTAGAAACCAGTGAGAAAATGGTGACCCT,3.26
22,TGCTTTTCTAGAACCAGGAATCCTAGGGAA,0.0809
23,TGATTACCCTTATCTTATCTCCTGCTAAAT,-0.667
24,TTTACTTCCTTTTGTTCCTGCTCTAACACT,1.1
25,GCTGATGCAGAGGGTGCAAAGTTTTTAAAG,0.689

row,Sequence,binding signal (log2 normalized intensity)
1,CTAGGAAACTGACCTTTGCTCATGACTATT,5.53
2,ACGCCCGGCCAAAGACCACATTCTTTTAGT,-1.13
3,ATCAGAGAGTTCAAACTCTGAAGTTGTAAA,0.644
4,CCCCTTTGAACTCTGAATAACTGCTTTGTG,1.75
5,CAGGCTGCGTTTCAAAGCCAGGACTTTCAG,-1.18
6,TACAGAATTTCTCAGATGCCAGCTAAGATC,-1.14
7,TGGTTCCATTGTCCTACAGGACATTAATCA,0.503
8,AGTTCCTGTGCAAGCCCCTGACCAAGGGTC,3.15
9,AAAAACCACAAAAGCCAACAGTACAGCCTT,-1.12
10,TGCATAGCAGAAACATAGAAAGGAGTACAC,-0.58
11,TTCCAGTTACTGGAGGCTGGAGCTCCTGGG,-1.18
12,TAAAATTCCCTGTGGAATTTTAAGCTTCAC,-0.912
13,GTTCCCCCGTGTAGACACTCATCCCTTGCA,2.42
14,AGGTGAAGGCTGACCACGGGGGCCGCTCTC,-1.07
15,CCCCCTATCCCAAGACATCAATTAACTTGT,3.05
16,AGCATGGAGATGAGTGGGTTCACTTTGAGC,1.11
17,GAGGGAACGCCCGACGCGAAGGCAGTGTGG,-1.22
18,TACACAACAGCACTTGTGCAGTTTTTCTGC,-1.13
19,TAAGATACTGAAATGCCAAAAAAGAAGAAG,-1.09
20,CATTGTGTGCAGACCTTCTCTGGCCCTCAC,0.878
21,CTGGGCCCTGCCTGACCTGCCCTTTGTCCC,6.28
22,ACCCTGCAATTCCCCTGGGCCCACGGCTCT,-1.22
23,TGACCTGGAGCATGACCCTTTGCAGGTGGG,1.92
24,ATTAAATCTTGTTGGCTTGACGCTAACTTC,-0.983
25,GCTCAGTCCAAGTCCAAAGGTCTGAGAACC,3.98

row,Sequence,binding signal (log2 normalized intensity)
1,TGGGAGCCTTGCACACTCGCCTGGCTCCCC,-1.12
2,TAGGCATTCTTAGACACAGTCTGAGATAGA,-1.09
3,GGATTTTTTCTTGGACTTTGGTCATCCTTT,6.83
4,CCTTCACTATTTTCAAAGGTCAACATACAG,3.12
5,ATACCACTGATAAGGTTCCAGCAAAGAGAT,-0.71
6,ATCGCTTCCAGGGTTACCGGCAGAGAGAAG,-0.689
7,CTGGTAGCAGGGGTGGTTCATTTGCACTTG,1.32
8,CAAACCAAAAAGTTGGTTGGAGCTATGGGC,-1.15
9,TACTTAGTGTTTTATGTGTATTTACTTATT,2.32
10,CTTAGGGAACAAAGGTCAGTCCCGCAGTGA,4.76
11,TGGACCTGCTCTGTTTTCTTTCGGTCACCC,2.1
12,GTCCAAGTCACTATCACCTCTCCCACCTGA,2.41
13,CTCCCCCTTTCTCCGCTAAGTGGCTCGACA,2.25
14,TGATCCTGGTAGCAGGGGTGGTTCATTTGC,1.4
15,GTTAGACAGTGCCTATGTTGGAATGCCTAA,-0.576
16,TTACTGTGTAAACTTTGCAGCAGATAATTA,-1.05
17,GTCCAGAGTCCACGTACTTAACTACTACAC,0.802
18,TTCCTGGCCTCTCTGCAAATTTGCCTTGTC,0.429
19,ACTATTTTCCTAAATATGTTCCAAAGTTCA,3.81
20,TATTTCACAGGGATAAGCATGGAGATGAGT,0.632
21,CACACCCCACGTACATTGCACCCTCCAGGA,2.2
22,ATCTCACTAACAGTGTTCCTCGTGTGTTCT,1.8
23,TCCAAAATCTGCATCCCCAAGCTGTTATTC,2.06
24,ATTCCACACTGCAGGCTCTGTCCCCGCCCA,2.91
25,ACCCAGAGCCCCACCGTTGTGTAATCTCTT,1.69

row,Sequence,binding signal (log2 normalized intensity)
1,AAGTCCAAAGTTCTTGGCCAGGCATGGAGA,2.49
2,CCCCACCCCACTCCACCTACGCTACGCACC,4.38
3,TGAAATATGCCCAGAGCTTTGTTCTGTTCC,0.402
4,TGTTGCTCTCTTGCCATTCGTGGATGAGCG,-0.0128
5,CTTGAGGAGCCCTATCCGCAGCTGCTGACA,-1.21
6,CTGGGAGGTAAACTGTAAACCTTTGAAATG,0.607
7,TATCAGCTCTCCGTGGACTTTGCCCCCTAC,11.1
8,TATGTGTGTGCTTTAACAAGGTGTGTTTGA,2.08
9,CTGGCCTGCTGGGAACTCAGGATCAAACAG,-1.07
10,CTGCACCCTACGTAAATGCACGGAAGCCTT,-1.12
11,TTTGGCTGGTAGAGCAGGTTTCAGAGGCTC,-0.75
12,AGAGTTAGCTAAGCTTCACTGACATTCCAG,-0.883
13,CTTTATCTCTCTCTCTTTCTTCCCCCACTC,4.59
14,AGGGCTGAAGGTTAATTCGCTCATCAATGG,-0.0658
15,GGATCAATGGATCCACTCAGTATGGCAACC,-1.01
16,CTATTTCTGACCTTTGCACCAGAGATAATA,5.8
17,GTCCGGCAGAGCTATGGAATTTTGGCCTTT,3.22
18,GGCCAGATAAAGCAGGTTGTACCTTGACCC,8.92
19,TTCCACTGACTTGCAACCTTTGCCCTGTTG,6.31
20,TCCTCAGGGAGGAAGGCAACCACAGCCTCT,-1.16
21,GCCCTTTGCCCTTTGCCCAACCCTCTCCCA,5.55
22,GACGAGCTGTCACTGGCTGCTGCTCAGGAG,-1.11
23,TGGAAGAGCCTGCAAGGGAGACCAGGAAAG,-1.14
24,TCCCCTCCCTCAGCTCTGCCCAGACCTTAT,3.8
25,TTGATCAGGGACCTTTGTTCCTTTACACAT,3.32

row,Sequence,binding signal (log2 normalized intensity)
1,CTTTGGAACCTGCCCTCTGTCCCATGGTGT,2.48
2,CCAAGGTTCTCCAGGGACCCCCCGACCCCA,5.52
3,GTGCTCCCTCCCCCTGCATGAACCTTTGCT,3.19
4,AGAAAAAGGAGCAGATGGCTAGTGACTCAG,-1.03
5,TGTGCAAAATACCTGGAAGTATTTATTGAG,0.799
6,GTTATCTCATTACTCTGCATAAGGACCTCC,0.652
7,TTGTTGTTATCCATTTAAAAAGTATTTATT,0.906
8,CCCACCTCTCAGACAGAGCTGGTCTGTGCT,-1.13
9,TTGGAATGTTCCAAGACCTTTGAAGCTTGC,2.05
10,CCAGTTTTCCCAAAGGAGCTTTATTGGTTC,1.5
11,GTTTTGTGAGTTTTCTTCTGAAATTGCTCA,0.613
12,GGCCATGTGCAGAGGAGGGGGCAGGAGCCC,-1.1
13,TCGCAGTCATAAATACTCATTATGTTGCTG,-0.834
14,GGAACACGAGGTGAGAGGCGGAACAAGGCT,-1.07
15,GAACCCACATCACTGGCCAAAGGTAATAGG,-0.776
16,CAGTCTATCAGACCAGCATTCTTTCTGCTG,-1.08
17,ACCAGGCAGTTTCCCGGTTCCTGATCTCAG,-1.11
18,CAAACCTTTGACCTTTCCATAGTTCCGAGT,3.65
19,GGCATCTACTTTTAAAACGCTCAAATAAGC,-0.972
20,GGGCCTACCTGCCTGAGCTATCTGTTTGAG,-0.641

# — paper PMC10726135
